Laboratory results: ChEMBL document CHEMBL4888484, “Replenishing the malaria drug discovery pipeline: Screening and hit evaluation of the MMV Hit Generation Library 1 (HGL1) against asexual blood stage Plasmodium falciparum ,using a nano luciferase reporter read-out” (2022)
About 540 (0.36%) of roughly 150,000 compounds showed an effect of 50% or more. This is one part of the list.

tested on: Plasmodium falciparum; experiment: Primary screen in NF54 nanoGlo assay, in single point, at 2uM, 72h; a lower Z score goes with more inhibition; assay type: functional, Erythrocyte; conditions: timepoint 72 hour

| SMILES | % Inhibition [%] | Z score |
| --- | --- | --- |
| COc1ccc2cc(-c3n[nH]cc3CN(C)Cc3nonc3C)ccc2c1 | -12 | 1.58 |
| O=C(NCCn1nc(C2CC2)ccc1=O)c1ccno1 | 14 | -1.8 |
| CCCN(CCC)CC(=O)N[C@@H](C)c1ccco1 | -13 | 1.37 |
| Cc1c(C(=O)N2CC(n3cc(CO)nn3)C2)cc(-c2ccccc2)n1C | -4 | 0.73 |
| CN(C)C(=O)N1CCC(Nc2ccc(C3CC3)c(F)c2)CC1 | -5 | 0.69 |
| Cc1cccc(OC2(C(=O)O)CCN(C(=O)c3cscn3)CC2)c1 | -6 | 0.51 |
| O=C(Nc1nnc(-c2cccs2)o1)c1ccc2c(c1)OCO2 | -16 | 1.81 |
| O=C(Nc1ccc2c(c1)OCO2)c1nn(Cc2ccccc2)c(=O)c2ccccc12 | -12 | 2.15 |
| CCN1C[C@H](CN(C)C(=O)c2cc(S(=O)(=O)N(C)C)ccc2N2CCCC2)Oc2ccccc21 | -11 | 1.53 |
| CCCCN(Cc1cccnc1)Cc1cccnc1N | -5 | 0.59 |
| O=C(Cc1nc(-c2cccc(F)c2)no1)Nc1ccc(F)cc1 | -12 | 2.1 |
| CCCc1cc(C(=O)N2C[C@H](N)C[C@H]2C(=O)NC(C)C)cs1 | -6 | 0.55 |
| Cc1ccc([C@H](CNC(=O)COc2ccc(Cl)cc2)N2CCN(C)CC2)o1 | 1 | -0.12 |
| COCC1(NC(=O)[C@H](C)n2ccnc2)CCCC1 | -13 | 2.65 |
| Cc1cnc(C)c(N2CCC(n3nccc3NC(=O)c3cccnc3)CC2)n1 | -8 | 0.84 |
| Cc1ccc(C(=O)N(C(=O)CCC(=O)O)c2c(C)n(C)n(-c3ccccc3)c2=O)cc1 | 5 | -0.7 |
| Cc1cn2nc(C(=O)N3CCCCC3)cc2c(N(C)Cc2ccccc2)n1 | -11 | 1.39 |
| CCCn1c(C)cnc1C1CN(C(=O)c2cccs2)C1 | -11 | 1.39 |
| O=C(CCc1ccc(Cl)c(F)c1)N1C[C@@H]2CS(=O)(=O)C[C@@H]2C1 | -9 | 1.12 |
| O=C(Cn1nc2n(c1=O)C(=O)N(c1ccccc1)C2)NCc1ccccc1F | -9 | 1.22 |
| COC[C@H](C)NC(=O)Nc1ccc(Cl)cc1Cl | 2 | -0.18 |
| Cc1cccnc1CN1CCN(C(=O)CC2CC2)C[C@@H](O)C1 | -3 | 0.29 |

| SMILES | % Inhibition [%] | Z score |
| --- | --- | --- |
| CCOC(=O)[C@@]1(C(C)C)CCN(C(=O)c2ncoc2C)C1 | 16 | -2.17 |
| O=C(NCC[C@]1(O)CCCOC1)c1cnc2n1CCCCC2 | -6 | 0.97 |
| CCn1cc(OCc2nc(-c3ccoc3)no2)cn1 | -8 | 1.16 |
| Cn1ccnc(N2CCN(c3cc4c(nn3)CCC4)CC2)c1=O | 19 | -2.54 |
| CC(C)(O)C(C)(C)CNC(=O)c1cncc(N2CCOCC2)c1 | -20 | 2.48 |
| COc1cccc(-c2nc3c(s2)CN(S(=O)(=O)c2cccc(Cl)c2)CC3)c1 | 0 | -0.01 |
| O=C(Nc1ccccc1OCc1cccc(Cl)c1)[C@H]1CC12CCNCC2 | -5 | 0.84 |
| COCCN(CC(N)=O)CC(=O)Nc1ccc(C(C)(C)C)cc1 | -4 | 0.46 |
| COc1ccc(NCc2cn(-c3ccccc3)nc2-c2ccc(C)o2)cc1 | -16 | 1.68 |
| CC(C)=CCN1CCC(NC(=O)C(=O)Nc2cccc(C)c2)CC1 | -11 | 1.42 |
| CC(=O)c1cnc(NCCc2cccnc2)nc1C | -14 | 1.82 |
| Cc1ccc(NC(=O)NC2CCCC2)cc1NC(=O)NC1CCCC1 | -3 | 0.42 |
| CN1CCCC[C@@H]1CCNC(=O)c1ccc(N2CCCOCC2)nc1 | -23 | 2.51 |
| O=C(CN1CCN(c2ccccc2F)CC1)NC(C1CC1)C1CC1 | -32 | 3.8 |
| O=C(Cn1cc(OCc2ccccc2)c(=O)cc1CO)NCc1ccc2c(c1)OCO2 | -4 | 0.56 |
| c1ccc(C2CN(Cc3cnc(-c4cccc5ccccc45)nc3)C2)nc1 | -15 | 1.68 |
| CCS(=O)(=O)c1ccccc1N1CCO[C@H](c2cccs2)C1 | -1 | 0.19 |
| COc1cccc(C2CN(C(=O)c3ccccc3)CC2C(=O)NCC2CC2)c1OC (stereo not given) | 31 | -3.12 |
| Cc1csc([C@@H](C)CNC(=O)NCc2ccc(C)s2)n1 | -1 | 0.12 |
| CC(C)c1ccc(C(=O)N2CCC3(CC2)C(=O)NCCN3C)c(=O)n1C | -1 | 0.15 |
| CCNC(=O)Nc1ccc(N(C)C)c(CN(C(=O)C(CC)CC)[C@@H](C)C(C)C)c1 | -9 | 1.27 |
| COCCCN(Cc1c(C)nn(-c2cccc(F)c2)c1N1CCN(C)CC1)S(=O)(=O)c1ccc2ccccc2c1 | 35 | -0.78 |

| SMILES | % Inhibition [%] | Z score |
| --- | --- | --- |
| Cc1c(NC(=O)N2CCS(=O)(=O)CC2)cccc1N1CCCC1 | 9 | -1.19 |
| CN(CCC1(O)CCCC1)c1ncc(F)cn1 | -12 | 2.35 |
| CCOC1CC(C(=O)Nc2c(C)cnn2[C@H]2CCCc3ccccc32)C1 (stereo not given in full) | -4 | 0.76 |
| Cc1cc(C)n2cc(COC(=O)Cn3c(C)cc4ccccc43)nc2n1 | 39 | -5.22 |
| O=C1CCCCC1C1CCCN1S(=O)(=O)C1CC1 (stereo not given) | -12 | 1.24 |
| CCC(=O)N1CCC2(CC1)Nc1ccc(C)c(C)c1-n1cccc12 | 8 | -1.5 |
| CCC1COCCN1C(=O)C1C2CCCC21 (stereo not given) | -3 | 0.25 |
| COc1cccc(CNC(=O)Nc2cc(C3CC3)nn2[C@H]2CCS(=O)(=O)C2)c1 | -12 | 1.87 |
| CC(=O)N1c2ccccc2N(Cc2ccc(Cl)c(Cl)c2)C(=O)C1(C)C | 1 | -0.23 |
| OCC1(c2nc(C3CCOCC3)nn2-c2cccc3c2CCC3)CC1 | 0 | 0.02 |
| O=C(COc1ccc2c(c1)OCO2)Nc1ccc2c(c1)C(=O)Nc1cccnc1O2 | 32 | -3.82 |
| O=S(=O)(c1ccccc1)N1CCC2(CC1)Nc1cccnc1N=C2NCc1ccccc1 | 27 | -3.02 |
| O=C1C[C@H](c2cccc(O)c2)c2cnn(Cc3ccc(Cl)cc3)c2N1 | 4 | -0.47 |
| CC(C)(C#N)c1ccc(-c2ccc3c(c2)OC[C@@H](N2CCCC2)[C@@H]3O)cc1 | -10 | 1.93 |
| CC(C)C(=O)N1CCCN(S(=O)(=O)CCc2ccccc2)CC1 | -10 | 1.86 |
| Cc1noc(CCCC(=O)N2CCN(c3cccc(C)c3C)CC2)n1 | 2 | -0.31 |
| Cn1nccc1CCC(=O)NC(c1ccc(F)cc1F)[C@H]1C[C@@H](O)C1 (stereo not given in full) | 1 | -0.09 |
| CCn1nc(C)c(CN2C[C@@H](CO)[C@H](NC(=O)C3CCC3)C2)c1C | -14 | 1.98 |
| CCCNc1ccccc1C(=O)N[C@H]1CCNC1=O | 6 | -0.77 |
| Cc1c(C(=O)OCC2(C#N)CCOCC2)cnn1C | -2 | 0.21 |
| O=C(NS(=O)(=O)c1c(Cl)ccc(F)c1F)[C@H]1CC[C@H](c2ccccc2)C1 | -14 | 1.86 |
| CC(C)(C)C(=O)NC[C@H](O)c1cccs1 | -5 | 0.92 |

| SMILES | % Inhibition [%] | Z score |
| --- | --- | --- |
| Cc1ccc(NC(=O)c2sc(NC3CCCCC3)nc2C)c(F)c1 | -11 | 1.43 |
| O=C(N1CCOCC1)N1CCC[C@H](NCC(F)(F)F)C1 | -5 | 0.61 |
| OCCn1ncc2c1CN(c1ncccc1F)C2 | -3 | 0.33 |
| NCCOc1ccccc1Br | -12 | 1.11 |
| COc1ccnc(NC(=O)c2nc(C)ncc2Cl)c1 | -2 | 0.31 |
| CC(C)N(C(=O)c1cc(O)nc2ccccc12)C1CC1 | 33 | -0.94 |
| C[C@@H](Cc1cn(Cc2ccoc2)nn1)c1ccccc1 | -5 | 0.88 |
| CCc1c(C)nc(N)nc1NCc1cnn(CC)c1 | 1 | -0.1 |
| CC(C)Cn1cncc1CN(Cc1ccc(O)cc1)C1CC1 | 7 | -1.43 |
| COc1ccc(C(=O)c2c[nH]c(C(=O)NC[C@H]3CCCO3)c2)cc1 | 39 | -5.06 |
| COc1ccc(-c2nnc(C[C@@H]3C[C@@H](C(C)C)[C@H](CN4CCN(C)CC4)C=C3C)o2)cc1 | -10 | 1.6 |
| Cc1ccc(NC(=O)CN2Cc3ccccc3C2)cc1N1CCCS1(=O)=O | -7 | 0.72 |
| CN1CCN(C(=O)c2ccc(F)c(F)c2)[C@H]2CS(=O)(=O)C[C@H]21 | -12 | 1.55 |
| COc1ccc(-c2ccc3nc(-c4cccc5c4OCO5)oc3c2)c(OC)c1OC | -2 | 0.3 |
| CN(CC(=O)NCCN1CCCCC1)c1nnc(N2CCCCC2=O)s1 | -8 | 1.45 |
| Cc1nc(C)c(C(=O)N2CC[C@H]3[C@H](CCC(=O)N3CCc3ccccn3)C2)o1 | -11 | 1.34 |
| Cc1cccc(CC2(O)CCN(C(=O)Cc3ccoc3)CC2)c1 | -13 | 1.4 |
| Cc1nc(O)cc(CCn2ccnc2-c2cc3c(cc2Cl)OCO3)n1 | -1 | 0.08 |
| CCNC(=O)[C@@H]1C[C@H](NCc2cc(F)ccc2F)CN1Cc1ccccc1Cl | 12 | -1.54 |
